Assay results taken from PubChem BioAssay AID1865 (National Center for Advancing Translational Sciences (NCATS), 2009).
The whole screen tested about 280,000 compounds, of which about 540 (0.19%) were called active. This list was built around the results that the source calls inconclusive (neither active nor inactive); the mix of calls is not that of the screen. Calls follow the shape of the dose curve; as a rule, active = well fitted activation curve with a large enough effect; inconclusive = small, poorly fitted or top-dose-only effect; inactive = flat fitted curve, though single readings scatter. Where the call is inconclusive, the potency comes from a doubtful curve fit.

Assay: Quantitative High-Throughput Screen for Regulators of Epigenetic Control; also: nearly all actives have a fitted effect of over 60% in size
Conditions: murine LDR cells, GFP reporter derepression, 30 h; series mostly up to 53.9 µM
How it was run: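 Murine LDR cells bearing a silenced CMV-driven GFP reporter were exposed to compound for 30 h at 37 C. After PBS washes, GFP-positive cells (20-120 um objects) counted by laser-scanning microplate cytometry.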
Potency is read from the fitted curve at half-maximal effect; tags tell the direction and shape of the fitted curve.

Row | SMILES | Potency
1 | CCCc1ccc(O)c(N=Cc2cc(Br)cc(OCC)c2O)c1 | inactive
2 | COC(=O)C/C=C/[C@@H](C)[C@H](NC(=O)OCC(Cl)(Cl)Cl)c1ccc2ccccc2c1 | inactive
3 | CCOc1ccc2c(c1)/C(=C(\C(Cl)=C(Cl)Cl)[N+](=O)[O-])N2 | inactive
4 | O=C(Nc1nc2c(F)cc(F)cc2s1)c1ccccn1 | inconclusive: 4.47 µM [activator, single point]
5 | CCC(c1nnnn1CC1CCCO1)N(CCCO)Cc1cc2cccc(C)c2[nH]c1=O (configuration not stated) | inconclusive: 31.6 µM [activator, single point]
6 | N#C/C(=C(/O)COC(=O)CSc1ccc2ccccc2c1)c1nc2ccccc2[nH]1 | inconclusive: 31.6 µM [activator, single point]
7 | CCOC(=O)C1CCN(Cc2ccc(O)c3ncccc23)CC1 | active: 5.62 µM
8 | CSc1nnc(C)c(/C=C/Nc2ccc(F)cc2)n1 | inactive
9 | CCOc1ccc2c(c1)C(C)=CC(C)(C)N2 | inconclusive: 12.6 µM [activator, single point]
10 | COc1cc2c(cc1OC)C(c1ccc(-c3cc(Cl)ccc3Cl)o1)=NCC2 | inconclusive: 35.5 µM [activator, single point]
11 | CCCc1ccc(S(=O)(=O)N2CCC(c3nnc(-c4cccc(C)c4)o3)CC2)cc1 | inconclusive: 31.6 µM [activator, single point]
12 | O=C(Nc1ccc(NC(=O)c2ccco2)c(Cl)c1)c1cccc([N+](=O)[O-])c1 | inconclusive: 22.4 µM [activator, single point]
13 | CC(=O)CCS(=O)(=O)c1ccc(NC(C)=O)cc1 | inconclusive: 35.5 µM [activator, single point]
14 | CCn1c(=O)c2cc(C(=O)NCCCN3CCN(c4ccc(F)cc4)CC3)sc2c2ccccc21 | inconclusive: 20 µM [activator, single point]
15 | Cc1ccc(-c2nnc(NCc3nc4ccccc4[nH]3)c3ccccc23)cc1S(=O)(=O)N(C)C | inconclusive: 31.6 µM [activator, single point]
16 | NC(=S)Cc1nc(-c2ccc(Cl)cc2)cs1 | inconclusive: 25.1 µM [activator, single point]
17 | Cc1ccc(NC(=O)c2ccc(NCCCN3CCC(C)CC3)c([N+](=O)[O-])c2)cc1F | inconclusive: 35.5 µM [activator, single point]
18 | N=c1n(CCN2CCOCC2)c2ccccc2n1CC(=O)c1ccc(Cl)c(Cl)c1 | inconclusive: 35.5 µM [activator, single point]
19 | O=C(Oc1ccc(Cl)c2cccnc12)C12CC3CC(CC(C3)C1)C2 | inconclusive: 31.6 µM [activator, single point]
20 | O=C(c1cc(-c2ccc(F)cc2)on1)N1CCCC1 | active: 15.8 µM
21 | CC(C)(C)OC(=O)[C@H](Cc1ccccc1)NC(=O)c1[nH]cnc1C(=O)Nc1cccc(Cl)c1 | inconclusive: 20 µM [activator, single point]
22 | CCOC(=O)N1CCc2c(sc3c2c(=O)n(-c2ccc(F)cc2)c(=O)n3CC(=O)c2ccc(Cl)cc2)C1 | active: 15.8 µM
23 | CCOC(=O)CSc1nc2cc(C)ccc2cc1C#N | inconclusive: 5.62 µM [activator, single point]

Row | SMILES | Potency
24 | Cn1c(SCC(=O)c2cc(Cl)c(Cl)s2)nnc1-c1ccco1 | inactive
25 | O=[N+]([O-])c1ccc(/C=C2\CCC(C3=CCCC3)=C2N2CCOCC2)cc1 | inconclusive: 25.1 µM [activator, single point]
26 | COCc1cc(CN2CCN(C)CC2)c(O)c2ncccc12 | inconclusive: 35.5 µM [activator, single point]
27 | COc1cc(OC)c(NC(=O)c2cc(C(C)=O)n3ccccc23)cc1Cl | inconclusive: 35.5 µM [activator, single point]
28 | COc1cc(C(=O)OCC(=O)Nc2cc(C)on2)ccc1OCc1ccccc1Cl | inconclusive: 35.5 µM [activator, single point]
29 | CCc1ccc(C2CC(c3ccco3)=NN2S(C)(=O)=O)cc1 (configuration not stated) | inconclusive: 35.5 µM [activator, single point]
30 | O=C(Nc1nccs1)c1cccc(N2C(=O)c3cccc4c([N+](=O)[O-])ccc(c34)C2=O)c1 | active: 12.6 µM
31 | CCOc1ccc(NC(=O)NNC(=O)c2ccc(CC)s2)cc1 | inconclusive: 14.1 µM [activator, single point]
32 | CCOC(=O)CN1C(=O)Nc2ccc(Br)cc2C1c1ccccc1 (configuration not stated) | inconclusive: 35.5 µM [activator, single point]
33 | CN1/C(=C\C=C(/C#N)C(=O)Nc2ccc(Cl)cc2)C(C)(C)c2ccccc21 | active: 22.4 µM
34 | COC(=O)c1ccc2c(=O)n(Cc3ccco3)c(SCC(=O)Nc3cc(C)on3)nc2c1 | inconclusive: 31.6 µM [activator, single point]
35 | Cc1[nH]c2ccc(Cl)cc2c(=O)c1CN1CCCC1 | inconclusive: 35.5 µM [activator, single point]
36 | Cc1ccc(/C=N/NC(=S)NC(C)C)o1 | inconclusive: 22.4 µM [activator, single point]
37 | CCOC(=O)c1c(NC(=O)CCCOc2ccc(Cl)cc2)sc2c1CCC2 | inactive
38 | CCN(CC)CCC[C@H](C)Nc1c2ccc(Cl)cc2nc2ccc(OC)cc12 | active: 3.55 µM
39 | CCOc1ccc(N2CC(c3nc4ccccc4n3CCCOc3ccccc3OC)CC2=O)cc1 (configuration not stated) | inactive
40 | O=S(=O)(Nc1nc2ccccc2nc1Nc1ccc(N2CCOCC2)cc1)c1cc(Cl)ccc1Cl | inconclusive: 22.4 µM [activator, single point]
41 | COc1ccc(-n2c(-c3ccc(C)cc3)n[nH]c2=S)cc1 | inconclusive: 22.4 µM [activator, single point]
42 | Cn1c(=O)oc2cc(S(=O)(=O)Nc3ccc4c(c3)OCO4)ccc21 | inconclusive: 12.6 µM [activator, partial curve]
43 | CCOC(=O)c1c(NC(=O)c2cccs2)sc2c1CCC2 | inactive
44 | COc1ccc(C(=O)Nc2ccc3nc(N4CCC(C)CC4)cc(C)c3c2)cc1 | inconclusive: 35.5 µM [activator, single point]
45 | COc1ccc(/C=C2\C(=O)NC(=S)N2C(=O)c2ccc(F)cc2)cc1 | inconclusive: 31.6 µM [activator, single point]
46 | CCCc1nc2ccccc2n1CCOc1ccccc1 | inactive

Row | SMILES | Potency
47 | COc1ccc(-c2nc(CSc3nncn4c3cc3occc34)c(C)o2)cc1 | inconclusive: 12.6 µM [activator, single point]
48 | COc1ccc(OC)c(C2C3=C(N=C4SCC(=O)N42)c2ccccc2CC3)c1 (configuration not stated) | inconclusive: 35.5 µM [activator, single point]
49 | O=C1NC(=S)N/C1=C/c1ccc(-c2c(Br)cc([N+](=O)[O-])cc2Br)o1 | inconclusive: 22.4 µM [activator, single point]
50 | CCOc1ccccc1NC(=O)Cn1c(=O)n(-c2ccc(F)cc2)c(=O)c2sc3ccccc3c21 | inconclusive: 11.2 µM [activator, partial curve]
51 | c1coc(CNc2nc(-c3ccncc3)cs2)c1 | inactive
52 | Oc1ccccc1N=Cc1sc2ccccc2c1Cl | inconclusive: 25.1 µM [activator, single point]
53 | Cc1cc(C2CCCCC2)n(O)c(=O)c1 | inconclusive: 8.91 µM [activator, single point]
54 | COc1ccc(-c2cc(-c3nnc(COC(=O)C4CC4C)o3)c3ccccc3n2)cc1OC (configuration not stated) | inconclusive: 20 µM [activator, single point]
55 | COc1ccc(C2=C(C)C(=NCCCN3CCN(c4cc(C)ccc4C)CC3)NS2(=O)=O)cc1 | inconclusive: 31.6 µM [activator, single point]
56 | Cc1ccc(C)c(NC(=O)Cn2cc(C(=O)c3ccco3)c3ccccc32)c1 | inconclusive: 25.1 µM [activator, single point]
57 | O=C(Nc1ccc(C(=O)Nc2ccc(C(=O)Nc3ccc(S(=O)(=O)O)c4cc(S(=O)(=O)O)cc(S(=O)(=O)O)c34)cc2)cc1)Nc1ccc(C(=O)Nc2ccc(C(=O)Nc3ccc(S(=O)(=O)O)c4cc(S(=O)(=O)O)cc(S(=O)(=O)O)c34)cc2)cc1 | inactive
58 | CCCCN(CCCC)CCNC(=O)Cn1nc(CC)n2c(cc3sc(C)cc32)c1=O | inconclusive: 17.8 µM [activator, single point]
59 | COc1cc(C(N)=O)ccc1OCc1ccccc1 | inactive
60 | CN(C)CCNC(=O)Cn1c(=O)c2cccn2c2ccc(F)cc21 | inactive
61 | Oc1ccc(Cl)cc1C1=NNC(c2ccc(Cl)cc2)C1 (configuration not stated) | inconclusive: 31.6 µM [activator, single point]
62 | COc1ccc(NC(=O)c2sc3nc(-c4ccc(OC)cc4)cc(C(F)(F)F)c3c2N)cc1 | active: 7.08 µM
63 | Cc1ccc(CS(=O)(=O)c2ncc(Cl)c(C(=O)Nc3nc4ccc(C)cc4s3)n2)cc1 | inconclusive: 4.47 µM [activator, full curve, poor fit]
64 | CC(=O)Nc1ccc(S(=O)(=O)NNC(=O)COc2cccc(C)c2)cc1 | inactive
65 | N#CC(C#N)=C1C=CC=CN1/C(=C\c1ccccc1Cl)C(=O)c1ccccc1 | inconclusive: 5.62 µM [activator, single point]
66 | O=C(CCN1C(=O)C2C3C=CC(C4CC34)C2C1=O)Oc1cccc2cccnc12 (configuration not stated) | inconclusive: 15.8 µM [activator, single point]
67 | N=c1c(C(=O)NCc2ccco2)cc2c(=O)n3ccccc3nc2n1Cc1ccc(Cl)cc1 | active: 7.08 µM
